# Hit rate of the full screen: of about 420,000 compounds, about 64,000 (15%) were called active. The shares of active, inactive and inconclusive entries below differ from those in the screen. Calls follow the shape of the dose curve; as a rule, active = well fitted inhibition curve with a large enough effect; inconclusive = small, poorly fitted or top-dose-only effect; inactive = flat fitted curve, though single readings scatter. No potency is given beside an inconclusive call; the fits are too rough.
# Test: qHTS for Inhibitors of human tyrosyl-DNA phosphodiesterase 1 (TDP1): qHTS in cells in absence of CPT; also: nearly all actives have a fitted effect of over 55% in size
# Conditions: DT40 Tdp1-/- hTDP1 cells, no CPT, ATP luminescence, 48 h; activity change, negative = growth inhibition: at 46.2 µM (top of the series) unless noted
# Method in brief: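 Luminescent ATP content (CellTiter-Glo) served as the growth readout. Knockout chicken DT40 cells expressing human TDP1 were exposed to compounds without camptothecin for a minimum 48 hr at 37 °C.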
# % is scaled to controls: 0 for no effect and ±100 for the full control effect; potency is read from the fitted curve at half-maximal effect; tags tell the direction and shape of the fitted curve.
SMILES,Potency,"activity change, negative = growth inhibition"
COc1ccc(OC)c(-c2cc(C(=O)N/N=C(\C)c3cccnc3)c3ccccc3n2)c1,"inconclusive [inhibitor, partial curve]",
Clc1ccc(CSc2nnc([C@@H]3CCCN3)o2)cc1,,inactive: -17%
O=c1oc2cc(OCc3c(F)cccc3Cl)ccc2cc1-c1ccccn1,"inconclusive [inhibitor, partial curve]",
COc1ccccc1NC(=O)CN1CCC(C(=O)c2ccc(F)cc2)CC1,"inconclusive [inhibitor, partial curve]",
Nc1ccn(CCCN2CCN(C(=O)C3CC3)CC2)c(=O)n1,,inactive: 0.394%
Cc1ccccc1-c1cc2nc(NCCN3CCNC3=O)n(C)c(=O)c2s1,"inconclusive [inhibitor, full curve, poor fit]",
COc1ccccc1C1NC(=O)CS1 (stereo not drawn),,inactive: -5.3%
N/C(=N\OC(=O)Cc1ccccc1)c1cccc(Br)c1,,inactive: 10.1%
COc1ccc(N2CCN(C3CCCN(Cc4ccc(F)cc4)C3)CC2)cc1 (stereo not drawn),"inconclusive [inhibitor, single point]",
Cc1cccc(NC(=O)CCS(=O)(=O)c2ccc3c(c2)NC(=O)CS3)n1,"inconclusive [inhibitor, single point]",
Cc1cccc(OCC(=O)NC(=S)Nc2ccccc2N2CCOCC2)c1,"inconclusive [inhibitor, single point]",
CCOC(=O)c1cnc(Nc2nc3ccccc3o2)nc1CSC(=S)N1CCCCC1,active: 0.0326 µM,
CC(C)c1c(C(=O)N/N=C/c2cccc(OCc3ccc(F)cc3)c2)nnn1-c1nonc1N,active: 16.4 µM,
CCCc1cc(=O)oc2cc(OCC(=O)NCC(O)c3ccccc3)ccc12 (stereo not drawn),"inconclusive [inhibitor, partial curve]",
CSc1cccc(NC(=O)NCc2cccc(CNC(=O)Nc3cccc(SC)c3)c2)c1,"inconclusive [inhibitor, partial curve, poor fit]",
COc1ccc(CCNC(=O)c2cc(C(=O)c3cc(Cl)ccc3O)cn(CCc3ccc(OC)cc3)c2=O)cc1,active: 10.3 µM,
CN1C(C(=O)NCCc2cccs2)CC2Cn3c(nc4cc5ccccc5cc43)C21 (stereo not drawn),"inconclusive [inhibitor, single point]",
O=[N+]([O-])c1ccc2[nH]ncc2c1,,inactive: -29%
O=C(NCCC(F)(F)F)C1Cc2c(-c3ccccc3Oc3ccccc3)ccnc2O1 (stereo not drawn),"inconclusive [inhibitor, single point]",
CC(C)(C)C(=O)Cn1c(=O)n(CCCCCC(=O)NCc2ccc3c(c2)OCO3)c(=O)c2sccc21,"inconclusive [inhibitor, partial curve, poor fit]",
O=C1CCC(C(=O)N2CCCCCCC2)CN1Cc1cccc(C(F)(F)F)c1 (stereo not drawn),"inconclusive [inhibitor, single point]",
Cc1cc(Oc2nc3c(C)cccn3c(=O)c2/C=C(\C#N)S(=O)(=O)c2ccccc2)ccc1Cl,"inconclusive [inhibitor, single point]",

SMILES,Potency,"activity change, negative = growth inhibition"
Cc1ccc(N=Cc2nc(/C=C/c3cccc([N+](=O)[O-])c3)oc2O)cc1,"inconclusive [inhibitor, single point]",
Cc1cc(C)c(OCC(=O)N(Cc2ccc(N(C)C)cc2)C2CCS(=O)(=O)C2)c(C)c1 (stereo not drawn),active: 23.1 µM,
O=C(COc1ccc2c(c1)OCO2)Nc1ccc2c(c1)oc1ccccc12,"inconclusive [inhibitor, partial curve]",
O=C(Nc1cccc(S(=O)(=O)N2CCCCC2)c1)C1COc2ccccc2O1 (stereo not drawn),"inconclusive [inhibitor, single point]",
COc1cc(CNCCO)cc(Cl)c1OCc1ccccc1Cl,"inconclusive [inhibitor, single point]",
O=c1[nH]c(O)c(/C=C2\C=Nc3ccccc32)[nH]1,,inactive: 15.6%
Cc1ccc(S(=O)(=O)N2[C@H](CC(=O)c3cccc4ccccc34)OC[C@@H]2C)cc1,"inconclusive [inhibitor, single point]",
O=C(/C=C/c1ccccc1)N1CCC(Cc2ccccc2)CC1,"inconclusive [inhibitor, single point]",
CC(C)[C@@H]1Cc2[nH][nH]c(=O)c2[C@H](c2ccc(F)cc2)O1,"inconclusive [inhibitor, single point]",
COC(=O)[C@@]1(Cc2ccccc2)[C@H]2C(=O)N(C)C(=O)[C@H]2[C@H]2CN=C(SCC(=O)c3ccccc3)N21,"inconclusive [inhibitor, single point]",
CC1CC(=S)Nc2ccccc2N1Cc1ccccc1 (stereo not drawn),"inconclusive [inhibitor, single point]",
CN(C)CCNc1oc(COc2ccc(-c3ccccc3)cc2)nc1C#N,"inconclusive [inhibitor, single point]",
COc1ccc2cc(C(=O)C3CCCN(Cc4cnc(C)s4)C3)ccc2c1 (stereo not drawn),active: 16.4 µM,
CCOC(=O)C1CCCN(C(=O)CSc2ccc(Br)cc2)C1 (stereo not drawn),active: 18.4 µM,
CCc1nc2ccc(C(=O)N3CCN(C(=O)c4ccco4)CC3)cn2c1N(CC)Cc1cccc(Br)c1,active: 23.1 µM,
NC(CSC1(c2ccc(F)cc2)c2ccccc2-c2ccccc21)C(=O)O (stereo not drawn),"inconclusive [inhibitor, single point]",
CN1CCC(C2(O)c3ccccc3CCc3ccccc32)CC1,"inconclusive [inhibitor, single point]",
CCOc1cccc(OCCCOc2cccc3cccnc23)c1,"inconclusive [inhibitor, partial curve, poor fit]",
CCCCn1cc(S(=O)(=O)c2ccc(CC)cc2)c(=O)c2cc(F)c(N3CCCC(C)C3)cc21 (stereo not drawn),active: 23.1 µM,
C#Cc1cccc(C(=O)NCc2nc(-c3ccccc3NC(C)=O)oc2C)c1,,inactive: -8.15%
Cc1ccc(CN2CC(C(=O)N3CCN(S(=O)(=O)c4c(F)cccc4F)CC3)CC2=O)cc1 (stereo not drawn),,inactive: -11.1%

# — PubChem BioAssay AID686978 (National Center for Advancing Translational Sciences (NCATS), 2013)
